Article PMC4336329 (PLoS ONE, 2015)
Out of some 310,000 compounds screened, about 14,000 (4.5%) showed an effect of 50% or more. The effect is printed as a negative number. The list shows a part of the results.

molecular target: human ether-à-go-go-related gene (hERG) potassium channel (human, UniProt Q12809); assay: primary screen, population patch clamp on CHO cells stably expressing hERG
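Also: peak tail current of the secondary pulse compared with the same well before compound.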

Chain of human ether-à-go-go-related gene (hERG) potassium channel (Q12809 whole entry, looked up): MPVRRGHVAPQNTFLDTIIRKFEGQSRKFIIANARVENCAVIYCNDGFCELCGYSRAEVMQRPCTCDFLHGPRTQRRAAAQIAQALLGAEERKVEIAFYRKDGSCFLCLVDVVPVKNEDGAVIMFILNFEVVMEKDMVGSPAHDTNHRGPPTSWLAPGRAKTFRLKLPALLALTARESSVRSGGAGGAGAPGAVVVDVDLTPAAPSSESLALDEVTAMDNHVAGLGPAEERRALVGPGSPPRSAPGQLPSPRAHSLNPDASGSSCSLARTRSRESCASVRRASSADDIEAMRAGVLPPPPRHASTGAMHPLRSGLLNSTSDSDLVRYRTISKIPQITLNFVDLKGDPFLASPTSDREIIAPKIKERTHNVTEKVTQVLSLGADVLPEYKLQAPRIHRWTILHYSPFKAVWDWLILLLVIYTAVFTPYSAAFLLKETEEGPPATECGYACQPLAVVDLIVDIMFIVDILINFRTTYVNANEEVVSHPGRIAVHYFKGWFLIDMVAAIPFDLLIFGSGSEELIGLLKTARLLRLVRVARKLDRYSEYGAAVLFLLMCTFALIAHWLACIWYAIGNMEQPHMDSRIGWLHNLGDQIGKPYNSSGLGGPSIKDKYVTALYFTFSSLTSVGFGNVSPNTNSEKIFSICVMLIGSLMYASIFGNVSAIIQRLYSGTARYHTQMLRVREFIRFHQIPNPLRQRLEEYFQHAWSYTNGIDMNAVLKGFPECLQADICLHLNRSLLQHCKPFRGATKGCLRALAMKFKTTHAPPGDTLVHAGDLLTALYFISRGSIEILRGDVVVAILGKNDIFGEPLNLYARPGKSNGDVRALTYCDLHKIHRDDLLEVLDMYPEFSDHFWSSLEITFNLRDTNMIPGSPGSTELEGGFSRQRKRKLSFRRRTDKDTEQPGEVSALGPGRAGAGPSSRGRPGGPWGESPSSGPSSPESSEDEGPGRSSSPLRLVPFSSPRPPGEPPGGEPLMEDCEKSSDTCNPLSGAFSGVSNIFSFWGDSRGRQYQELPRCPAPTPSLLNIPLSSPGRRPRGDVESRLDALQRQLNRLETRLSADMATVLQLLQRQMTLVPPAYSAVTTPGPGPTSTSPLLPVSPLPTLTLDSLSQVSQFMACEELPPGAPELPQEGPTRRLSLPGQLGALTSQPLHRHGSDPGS

| SMILES | hERG current change (%, negative = inhibition) at 10uM |
| --- | --- |
| CSc1nccc(N2CCN(c3ccc(F)cc3)CC2)n1 | -35% |
| CC(=O)Oc1ccc2c(=O)c(-c3ccccc3)c(C)oc2c1 | 16.2% |
| O=C(COc1ncnc2ccccc12)N1CCN(c2ccccc2)CC1 | -4.07% |
| COc1ccc(CCNC(=O)c2cc3cccc(OC)c3oc2=O)cc1OC | 12.1% |
| O=C(CN1CCC(NC(=O)c2cccc(F)c2)CC1)NCc1ccccc1F | -20.2% |
| Cc1ccn2cc(CCNC(=O)CC3CCCCC3)nc2c1 | -32.3% |
| Cn1cnnc1Sc1ccc(S(C)(=O)=O)cc1[N+](=O)[O-] | 13% |
| O=C(Nc1ccccc1)OCc1cc(-c2ccccc2Cl)on1 | 6.09% |
| COc1ccc(C(=O)NCC(=O)N/N=C/c2ccco2)cc1OC | 25.9% |
| COc1cccc(-n2ccnc2SCC(=O)NCc2ccccc2)c1 | 1.75% |
| CCOC(=O)C(=NCCCN(C)C)NNc1cc(C(F)(F)F)ccc1Cl | -18.5% |
| O=c1cnn(Cc2ccc(F)cc2)c2ccccc12 | -13.6% |
| CCOC(=O)c1cc(C)sc1NC(=O)C(c1ccccc1)c1ccccc1 | 14.5% |
| Cc1ccc(/C=C/C(=O)Nc2cc(S(=O)(=O)N3CCCCCC3)ccc2OCC(F)(F)F)o1 | -45.3% |
| Cc1cc(C2(c3cc(C)c(NC(=O)CN4CCOCC4)c(C)c3)CCCCC2)cc(C)c1NC(=O)CN1CCOCC1 | 2.19% |
| CCc1ccc(C(=O)CCC2CCCCC2=O)cc1 (stereo not drawn) | -5.71% |
| CC(C)c1ccc(CN2CCC(Oc3ccc(C(=O)N4CCCC4)cc3)CC2)cc1 | -71.6% |
| COC(=O)c1ccc(C(=O)OC)c(NC(=O)CN2CCN(c3ccccc3OC)CC2)c1 | -6.1% |
| CC12CCC(C(=O)N(CC(=O)O)C1=O)C2(C)C (stereo not drawn) | 24.6% |
| O=c1cc(CSc2nnc(NC3CCCCC3)s2)nc2sccn12 | -28.1% |
| COCCN1C(=O)N[C@@H](c2ccccc2)[C@H](C(C)=O)[C@H]1C | 3.61% |
| COc1cc(C(=O)N/C(=C\c2cn(S(=O)(=O)N(C)C)c3ccccc23)C(=O)N2CCCC2)cc(OC)c1OC | 10.9% |
| Cc1cc(C(=O)OCC(=O)NC(C)c2ccc(F)cc2)c(C)o1 (stereo not drawn) | 11.2% |
| Cc1ccc(NC(=O)CN(C)C(=O)Cn2c(=O)oc3ccccc32)cc1 | -1.09% |
